{"source": "PubChem BioAssay (NCATS)", "key": {"[1]": {"target": "Ubiquitin carboxyl-terminal hydrolase 1 (Homo sapiens) (UniProt O94782)", "sequence (O94782 whole entry, looked up)": "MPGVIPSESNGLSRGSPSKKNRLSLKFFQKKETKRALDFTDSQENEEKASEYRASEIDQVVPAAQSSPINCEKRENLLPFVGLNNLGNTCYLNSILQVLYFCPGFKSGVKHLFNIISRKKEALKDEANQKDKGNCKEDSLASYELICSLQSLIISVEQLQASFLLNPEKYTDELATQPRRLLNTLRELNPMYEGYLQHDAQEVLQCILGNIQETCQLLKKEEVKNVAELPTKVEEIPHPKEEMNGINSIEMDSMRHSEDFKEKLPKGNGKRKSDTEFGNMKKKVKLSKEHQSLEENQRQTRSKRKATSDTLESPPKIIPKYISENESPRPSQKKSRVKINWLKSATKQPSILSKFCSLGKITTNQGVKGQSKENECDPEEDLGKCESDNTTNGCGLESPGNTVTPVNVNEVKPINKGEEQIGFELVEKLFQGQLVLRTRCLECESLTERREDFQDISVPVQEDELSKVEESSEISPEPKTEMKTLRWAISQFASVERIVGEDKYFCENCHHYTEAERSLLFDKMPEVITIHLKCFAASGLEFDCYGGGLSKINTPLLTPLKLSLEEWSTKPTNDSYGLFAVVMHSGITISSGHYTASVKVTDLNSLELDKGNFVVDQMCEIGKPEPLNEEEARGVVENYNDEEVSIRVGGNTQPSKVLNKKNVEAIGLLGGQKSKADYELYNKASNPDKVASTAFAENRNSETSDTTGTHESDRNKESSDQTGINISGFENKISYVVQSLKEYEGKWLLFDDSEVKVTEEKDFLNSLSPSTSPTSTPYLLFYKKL", "experiment": "Inhibitors of USP1/UAF1: Pilot qHTS (AID 504865);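 further: rhodamine fluorescence freed from ubiquitin-rhodamine substrate followed over time; top concentration of the series differs between compounds; on the % scale 0 is the no-effect control and ±100 the full control effect; nearly all actives have a fitted effect of over 35% in size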", "in_short": "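USP1/UAF1 complex at 1 nM preincubated 15 min at room temperature with compound, then Ub-Rho substrate added at 150 nM final. Fluorescence (480/540 nm) read kinetically in 50 mM HEPES pH 7.8, 0.5 mM EDTA, 1 mM TCEP, 0.1 mg/ml BSA, 0.01% Tween-20.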"}, "[2]": {"experiment": "qHTS of pediatric cancer cell lines to identify multiple opportunities for drug repurposing: Primary screen for OHS-50 cells (AID 1347103);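 further: plate controls were DMSO neutral control for no effect and bortezomib positive control for full effect; nearly all actives have a fitted effect of over 40% in size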", "conditions": "OHS-50 osteosarcoma viability, CellTiter-Glo luminescence, 48 h; activity change, negative = cytotoxic: at 57.3 µM (top of the series)", "in_short": "(§1)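 Cells (500-1,000/well) rested 5 h, then received compounds for 48 h; metabolically active cells were measured by CellTiter-Glo luminescence. Final concentrations spanned up to 46 µM (MIPE, 11-point) or 0.59 nM-46 µM (NPC, 8-point) in primary screens, 11-point in follow-ups.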"}, "[3]": {"experiment": "qHTS of pediatric cancer cell lines to identify multiple opportunities for drug repurposing: Primary screen for Rh30 cells (AID 1347107)", "in_short": "as §1"}, "[4]": {"experiment": "A High-Content qHTS Against Drug Library for the Identification of Small Molecules that Inhibit DYT1 Early Onset Primary Dystonia-Associated Cell Pathology (AID 1645839; calls by dose curve)", "in_short": "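High-content imaging quantified EGFP-TorsinA mislocalization in HEK293-derived cells inducibly expressing DYT1 mutant torsinA, after 48 h exposure to compound given together with tetracycline induction. Cell count served as a toxicity channel alongside %pathology.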"}, "[5]": {"experiment": "Primary qHTS for inhibitors of nuclear receptor binding SET domain protein 2 (NSD2) in an isogenic RCH-ACV NSD2 p.E1099K mutant (9B) (AID 1645876)", "conditions": "activity change, negative = viability loss: at 44.9 µM (top of the series) unless noted"}, "[6]": {"experiment": "Primary qHTS for inhibitors of nuclear receptor binding SET domain protein 2 (NSD2) in an RCH-ACV wild type WT cells (2C) (AID 1645877)", "conditions": "activity change, negative = cell killing: at 44.9 µM (top of the series) unless noted"}, "SKOV3": {"system": "SKOV3", "experiment": "Primary qHTS to identify gynecologic anti-cancer compounds using libraries of approved drugs and bioactive compounds (AID 1345084)", "conditions": "Gynecologic cancer cell panel viability, ATPlite luminescence, 48 h; series mostly up to 57.5 µM", "in_short": "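Cells, 1,000 per well, were allowed to settle for 16 h at 37 C before compound addition. Five concentrations were tested for 48 h, and viability was read by ATPlite luminescence after 15 min at room temperature.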"}, "7G8": {"system": "7G8", "experiment": "qHTS profiling for inhibitors of Plasmodium falciparum proliferation (AID 504749)", "conditions": "P. falciparum in erythrocytes, SYBR Green DNA, 72 h; series mostly up to 28.7 µM", "in_short": "(§2)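 In a 72 h erythrocytic culture (37 C, humidified, 5% CO2) at 2.5% hematocrit and 0.3% starting parasitemia, compounds were tested; SYBR Green I in detergent lysis buffer stained parasite DNA overnight.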"}, "CP201": {"system": "CP201", "experiment": "qHTS profiling for inhibitors of Plasmodium falciparum proliferation (AID 504749)", "conditions": "P. falciparum in erythrocytes, SYBR Green DNA, 72 h; series mostly up to 28.7 µM", "in_short": "as §2"}, "CP203": {"system": "CP203", "experiment": "qHTS profiling for inhibitors of Plasmodium falciparum proliferation (AID 504749)", "conditions": "P. falciparum in erythrocytes, SYBR Green DNA, 72 h; series mostly up to 28.7 µM", "in_short": "as §2"}, "CP215": {"system": "CP215", "experiment": "qHTS profiling for inhibitors of Plasmodium falciparum proliferation (AID 504749)", "conditions": "P. falciparum in erythrocytes, SYBR Green DNA, 72 h; series mostly up to 28.7 µM", "in_short": "as §2"}, "CP247": {"system": "CP247", "experiment": "qHTS profiling for inhibitors of Plasmodium falciparum proliferation (AID 504749)", "conditions": "P. falciparum in erythrocytes, SYBR Green DNA, 72 h; series mostly up to 28.7 µM", "in_short": "as §2"}, "DIV17": {"system": "DIV17", "experiment": "qHTS profiling for inhibitors of Plasmodium falciparum proliferation (AID 504749)", "conditions": "P. falciparum in erythrocytes, SYBR Green DNA, 72 h; activity, negative = inhibition: at 28.7 µM (top of the series)", "in_short": "as §2"}, "P93_24": {"system": "P93_24", "experiment": "qHTS profiling for inhibitors of Plasmodium falciparum proliferation (AID 504749)", "conditions": "P. falciparum in erythrocytes, SYBR Green DNA, 72 h; series mostly up to 28.7 µM", "in_short": "as §2"}, "TAB109": {"system": "TAB109", "experiment": "qHTS profiling for inhibitors of Plasmodium falciparum proliferation (AID 504749)", "conditions": "P. falciparum in erythrocytes, SYBR Green DNA, 72 h; series mostly up to 28.7 µM", "in_short": "as §2"}, "[7]": {"system": "Zika virus NS2B-NS3 protease (unlinked complex)", "experiment": "Primary screen GU Rhodamine qHTS for Zika virus inhibitors: Unlinked NS2B-NS3 protease assay (AID 1347159)", "conditions": "Recombinant ZIKV NS2B-NS3 protease, Rhodamine110 substrate fluorescence; activity change, negative = inhibition: at 107 µM (top of the series)", "in_short": "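Buffer 10 mM Tris-HCl pH 8.0, 0.01% Tween 20. Unlinked protease 25 nM; compound preincubation 15 min, RT, protected from light. Substrate Rhod110, 1.5 microM; ~15% conversion in 15 min.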"}, "[8]": {"system": "Zika virus NS2B-NS3 protease (linked construct)", "experiment": "Primary screen NINDS Rhodamine qHTS for Zika virus inhibitors (AID 1347160)", "in_short": "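Aprotinin served as in-plate control. Conditions: 25 nM linked NS2B-NS3, pH 8.0 Tris buffer, titrated compounds, 15 min preincubation and 15 min reaction with 1.5 microM Rhod110 substrate at room temperature.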"}, "[9]": {"target": "Calcium and integrin-binding protein 1 (Homo sapiens) (UniProt Q99828)", "sequence (Q99828 whole entry, looked up)": "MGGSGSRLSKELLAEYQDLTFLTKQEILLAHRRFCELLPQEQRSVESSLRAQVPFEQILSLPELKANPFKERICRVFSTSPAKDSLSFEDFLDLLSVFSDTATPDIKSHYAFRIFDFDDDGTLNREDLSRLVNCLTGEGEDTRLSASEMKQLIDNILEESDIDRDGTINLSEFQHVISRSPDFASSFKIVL", "experiment": "Primary qHTS for Identification of Calcium Integrin Binding Protein 1 (CIB1) Competitor (AID 1508620)", "in_short": "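CIB1-GST (1 uM final) and compound incubated 15 min at room temperature before adding FITC-alphaIIb peptide tracer (100 nM final). Competition for binding read by fluorescence polarization (ex 480, em 540) after another 15 min at room temperature.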"}, "[10]": {"target": "Luciferin 4-monooxygenase (Photinus pyralis) (UniProt P08659)", "experiment": "Primary firefly luciferase (FLuc) qHTS assay for identification of artifact compounds. (AID 1845220)", "in_short": "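Cell-free, 1536-well qHTS. Buffer pH 7.6 with 0.01% Tween-20 and 0.05% BSA; 10 uM D-luciferin, 10 uM ATP; 10 nM P. pyralis luciferase; luminescence after 5 min.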"}, "[11]": {"experiment": "Primary fluorescence-based thiol-reactive (MSTI) qHTS assay for identification of artifact compounds. (AID 1845221)", "in_short": "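qHTS titration of compound; 4 uM MSTI, PBS pH 7.4, 2% DMSO; 1 h RT, dark; fluorescence 525/598 nm; normalized to Acetyl-MSTI and MSTI; 4-parameter Hill fit.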"}, "[12]": {"experiment": "Primary redox qHTS assay for identification of artifact compounds. (AID 1845223)", "in_short": "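Redox-cycling detection via DTT (250 uM final) oxidation coupled to Amplex Red (25 uM)/HRP (250 mU/mL) in HBSS. 15 min preincubation plus 30 min after DTT, room temperature. Ex/Em 525/598 nm; 4-parameter Hill fit against DMSO and 10 uM DA3003.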"}, "[13]": {"experiment": "qHTS of pediatric cancer cell lines to identify multiple opportunities for drug repurposing: Primary screen for A673 cells (AID 1347092)", "conditions": "A673 Ewing sarcoma viability, CellTiter-Glo ATP luminescence, 48 h; activity change, negative = cytotoxic: at 46 µM (top of the series)", "in_short": "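A673 cells (500-1,000 cells/well) were treated 48 hours at 37 degrees C with compounds at 11-point (0.78 nM to 46 µM) or 8-point (0.59 nM to 46 µM) dilutions. Viability read by CellTiter-Glo luminescence; concentration-response curves fitted.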"}, "[14]": {"experiment": "qHTS to identify inhibitors of the type 1 interferon - major histocompatibility complex class I in skeletal muscle: primary screen against the NCATS Pharmaceutical Collection (AID 1347407)", "in_short": "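Immortalized human myoblasts (C25cl48) with HiBiT knocked into endogenous HLA-B*08:01 were stimulated with 4.0 ng/ml IFN-beta and treated with compounds ([…] top 46 uM) for 24 hrs at 37 C. HiBiT lytic luminescence read.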"}}, "note": "Inconclusive results, whose numbers are uncertain, are shown with a selection of clear calls. For part of these data: No potency is given beside an inconclusive call; the fits are too rough. Active and inactive are the calls of the source. Unless noted, the call rests on the fitted dose curve; in most records, active means well fitted curve in the direction sought with a large enough effect; inconclusive means small, poorly fitted or top-dose-only effect, or another doubt; inactive means no such curve, though single readings can be large; an effect the other way counts as inactive or inconclusive. Tags describe the fitted curve by direction and shape. Wherever activity change, negative = cell killing is given: on the % scale 0 is the no-effect control and ±100 the full control effect; nearly all actives have a fitted effect of over 70% in size. Wherever activity change, negative = cytotoxicity is given: nearly all actives have a fitted effect of over 55% in size. Wherever activity change, negative = cytotoxicity is given: on the % scale 0 is the no-effect control and ±100 the full control effect. Wherever activity change, negative = viability loss is given: nearly all actives have a fitted effect of over 70% in size. Wherever activity change, negative = viability loss is given: on the % scale 0 is the no-effect control and ±100 the full control effect.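 Wherever activity, negative = inhibition is given: 0% = DMSO vehicle and full inhibition = artemisinin control.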 Wherever activity, negative = inhibition is given: nearly all actives have a fitted effect of over 60% in size.", "data": [{"compound": "CC(=O)Nc1ccc(OCCOCCOc2ccc(NC(C)=O)cc2)cc1", "values": [{"measurement": "Potency", "setting": "[1]", "result": "inactive"}, {"measurement": "Potency", "setting": "[2]", "result": "inactive"}, {"measurement": "Potency", "setting": "[3]", "result": "inactive"}, {"measurement": "Potency", "setting": "[4]", "result": "inconclusive [inhibitor, single point]"}, {"measurement": "Potency", "setting": "[5]", "result": "inactive"}, {"measurement": "Potency", "setting": "[6]", "result": "inactive"}, {"measurement": "Potency", "setting": "SKOV3", "result": "inconclusive [rising, partial curve, poor fit]"}, {"measurement": "Potency", "setting": "7G8", "result": "inactive"}, {"measurement": "Potency", "setting": "CP201", "result": "inactive"}, {"measurement": "Potency", "setting": "CP203", "result": "inactive"}, {"measurement": "Potency", "setting": "CP215", "result": "inactive"}, {"measurement": "Potency", "setting": "CP247", "result": "inconclusive [inhibitor, single point]"}, {"measurement": "Potency", "setting": "DIV17", "result": "inconclusive [inhibitor, single point]"}, {"measurement": "Potency", "setting": "P93_24", "result": "inactive"}, {"measurement": "Potency", "setting": "TAB109", "result": "inactive"}]}, {"compound": "N=C(N)c1ccc2nc(-c3cc(CC(=O)NC(CC(=O)O)C(=O)O)cc(-c4cc(S(N)(=O)=O)ccc4O)c3O)[nH]c2c1", "note": "(stereo not drawn)", "values": [{"measurement": "Potency", "setting": "[7]", "result": "inconclusive [inhibitor, partial curve]"}, {"measurement": "Potency", "setting": "[8]", "result": "inactive"}, {"measurement": "Potency", "setting": "[9]", "result": "inconclusive [inhibitor, full curve, poor fit]"}, {"measurement": "Potency", "setting": "[5]", "result": "inactive"}, {"measurement": "Potency", "setting": "[10]", "result": "inconclusive [inhibitor, partial curve]"}, {"measurement": "Potency", "setting": "[11]", "result": "active: 2.12 µM"}, {"measurement": "Potency", "setting": "[12]", "result": "inactive"}, {"measurement": "Potency", "setting": "SKOV3", "result": "inactive"}]}, {"compound": "O=C(Cn1c2ccccc2c2nc3n(c(=O)c21)CCS3)N1CCCC1", "values": [{"measurement": "Potency", "setting": "[7]", "result": "inconclusive [inhibitor, single point]"}, {"measurement": "Potency", "setting": "SKOV3", "result": "inconclusive"}]}, {"compound": "CC(/C=C/C=C(\\C)C(=O)O[C@@H]1O[C@H](CO[C@@H]2O[C@H](CO)[C@@H](O)[C@H](O)[C@H]2O)[C@@H](O)[C@H](O)[C@H]1O)=C\\C=C\\C=C(C)\\C=C\\C=C(/C)C(=O)O[C@@H]1C[C@](O)(C(=O)O)C[C@@H](O)[C@H]1OC(=O)/C=C/c1ccc(O)c(O)c1", "values": [{"measurement": "Potency", "setting": "[7]", "result": "active: 1.78 µM"}, {"measurement": "Potency", "setting": "[8]", "result": "inconclusive [inhibitor, full curve, poor fit]"}, {"measurement": "activity change, negative = cytotoxicity", "setting": "SKOV3", "result": "inactive: 3.61% [at 11.6 µM]"}]}, {"compound": "O=C(CO)[C@@H](O)[C@H](O)[C@@H](O)CO", "values": [{"measurement": "Potency", "setting": "[13]", "result": "inactive"}, {"measurement": "Potency", "setting": "[2]", "result": "inactive"}, {"measurement": "Potency", "setting": "[14]", "result": "inactive"}, {"measurement": "Potency", "setting": "[5]", "result": "inactive"}, {"measurement": "Potency", "setting": "SKOV3", "result": "inconclusive [rising, partial curve, poor fit]"}]}]}
